Data on four compounds can be found in the supplement of paper PMC4604168 (melanoma cell lines).

The structures appear in SMILES notation. The list shows a part of the results. Single values are uncertain, as repeats are few or missing.
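Further: cell number obtained by counting DAPI-stained nuclei in high-throughput microscope images with image analysis software, screen run in 1,536-well plates.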

This experiment concerns WM115. The experiment in a line: cell count relative to DMSO control; melanoma cells; higher = more viable cells. Conditions: library dose: low library concentration; 72 h.
In turn, `CC(=O)O[C@@]12CO[C@@H]1C[C@H](O)[C@@]1(C)C(=O)[C@H](O)C3=C(C)[C@@H](OC(=O)[C@H](O)[C@@H](NC(=O)OC(C)(C)C)c4ccccc4)C[C@@](O)([C@@H](OC(=O)c4ccccc4)[C@H]21)C3(C)C` [Docetaxel] + CN(NC(=O)CC(=O)NN(C)C(=S)c1ccccc1)C(=S)c1ccccc1 [STA4783] (first compound 0.0001 µM, partner dose 0.006 µM) registered a cell count of 45.9%.

In turn, `CC(=O)O[C@@]12CO[C@@H]1C[C@H](O)[C@@]1(C)C(=O)[C@H](O)C3=C(C)[C@@H](OC(=O)[C@H](O)[C@@H](NC(=O)OC(C)(C)C)c4ccccc4)C[C@@](O)([C@@H](OC(=O)c4ccccc4)[C@H]21)C3(C)C` [Docetaxel] + Cc1ccc(NC(=O)c2cccc(N(C)C)c2)cc1NC(=O)c1ccc(O)cc1 [ZM336372] (first compound 0.0001 µM, partner dose 2 µM) returned a cell count of 63%.

`Nc1ncn([C@H]2C[C@H](O)[C@@H](CO)O2)c(=O)n1` [decitabine] + CO[C@@H]1[C@H](N(C)C(=O)c2ccccc2)C[C@H]2O[C@]1(C)n1c3ccccc3c3c4c(c5c6ccccc6n2c5c31)C(=O)NC4 [Midostaurin] (first compound 0.1 µM, partner dose 0.08 µM) displayed a cell count of 61.7%.

`Nc1ccn([C@@H]2O[C@H](CO)[C@@H](O)C2(F)F)c(=O)n1` [gemcitabine] + CCc1ccc(CCOc2ccc(CC3SC(=O)NC3=O)cc2)nc1 [pioglitazone] (first compound 0.0004 µM, partner dose 2 µM) displayed a cell count of 93%.
